Bridge positions count the residues as written; N and C are the ends. Square brackets hold non-standard residues; d marks the D form. Peptide text beside a SMILES is read from it. Phe(4-F) = N[C@@H](Cc1ccc(F)cc1)C(=O)O
Legend:
O. volvulus iPGM = O. volvulus iPGM (Onchocerca volvulus, UniProt I6LDA6); experiment: biochemical; conditions: Ov iPGM Ave IC50 (M), 5 nM enzyme
B. malayi iPGM = B. malayi iPGM (Brugia malayi, UniProt Q4VWF8); experiment: biochemical; conditions: Bm iPGM Ave IC50 (M), 5 nM enzyme
C. elegans iPGM = C. elegans iPGM (Caenorhabditis elegans, UniProt G5EFZ1); experiment: PGM enzyme assay (enolase–pyruvate kinase coupled, Kinase-Glo Plus end point) and IC50 determination; format: biochemical; conditions: Ce iPGM Ave IC50 (M), 5 nM enzyme
[1] = Supplementary Table 4b, Ce-2d analogs
[2] = Supplementary Table 4a, Ce-2 analogs, average of N=2-3 independent experiments

Sequence of UniProt I6LDA6 (I6LDA6 whole entry): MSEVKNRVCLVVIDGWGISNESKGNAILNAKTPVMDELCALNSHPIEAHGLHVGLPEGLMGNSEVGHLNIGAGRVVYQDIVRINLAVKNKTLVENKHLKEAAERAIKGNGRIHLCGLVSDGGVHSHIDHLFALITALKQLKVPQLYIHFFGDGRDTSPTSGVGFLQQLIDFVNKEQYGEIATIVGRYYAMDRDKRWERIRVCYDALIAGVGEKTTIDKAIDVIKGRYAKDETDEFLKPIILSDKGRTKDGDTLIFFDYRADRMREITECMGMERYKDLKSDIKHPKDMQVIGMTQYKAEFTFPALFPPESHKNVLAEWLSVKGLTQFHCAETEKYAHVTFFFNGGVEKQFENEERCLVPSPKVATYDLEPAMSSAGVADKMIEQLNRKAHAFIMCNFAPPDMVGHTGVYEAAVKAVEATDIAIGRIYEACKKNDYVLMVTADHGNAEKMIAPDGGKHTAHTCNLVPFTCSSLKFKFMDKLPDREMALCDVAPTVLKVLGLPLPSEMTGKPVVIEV
Sequence of UniProt Q4VWF8 (Q4VWF8 whole entry): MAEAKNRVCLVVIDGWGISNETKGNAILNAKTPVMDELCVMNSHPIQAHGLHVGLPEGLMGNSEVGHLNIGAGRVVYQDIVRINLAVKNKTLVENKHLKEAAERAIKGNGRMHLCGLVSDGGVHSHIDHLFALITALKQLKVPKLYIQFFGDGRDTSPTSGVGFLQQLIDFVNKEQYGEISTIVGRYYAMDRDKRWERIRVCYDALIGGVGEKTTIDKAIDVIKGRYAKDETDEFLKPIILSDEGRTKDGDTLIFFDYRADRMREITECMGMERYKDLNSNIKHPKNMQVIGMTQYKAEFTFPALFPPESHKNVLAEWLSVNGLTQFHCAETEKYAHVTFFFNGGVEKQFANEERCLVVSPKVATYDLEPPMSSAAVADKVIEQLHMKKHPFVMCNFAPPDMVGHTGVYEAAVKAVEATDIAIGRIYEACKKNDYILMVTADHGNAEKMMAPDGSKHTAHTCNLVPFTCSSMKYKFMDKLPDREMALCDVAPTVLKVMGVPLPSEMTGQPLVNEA

| Structure (SMILES) | IC50 (O. volvulus iPGM; [1]) [M] | IC50 (B. malayi iPGM; [1]) [M] | IC50 (C. elegans iPGM; [1]) [M] | IC50 (O. volvulus iPGM; [2]) [M] | IC50 (B. malayi iPGM; [2]) [M] | IC50 (C. elegans iPGM; [2]) [M] |
| --- | --- | --- | --- | --- | --- | --- |
| CC(C)C[C@H](NC(=O)[C@H](Cc1ccc(O)cc1)NC(=O)[C@@H]1CSCC(=O)N[C@H](Cc2ccc(O)cc2)C(=O)N[C@@H](CC(=O)O)C(=O)N[C@@H](Cc2ccc(O)cc2)C(=O)N2CCC[C@H]2C(=O)NCC(=O)N[C@@H](CC(=O)O)C(=O)N[C@@H](CO)C(=O)N1)C(=O)N[C@@H](Cc1ccc(O)cc1)C(N)=O [Ce-2d Y7S] | 4.21e-07 | 9.5e-08 | 1.62e-08 |  |  |  |
| CC(C)C[C@H](NC(=O)[C@H](Cc1ccc(O)cc1)NC(=O)[C@@H]1CSCC(=O)N[C@H](Cc2ccc(O)cc2)C(=O)N[C@@H](CC(=O)O)C(=O)N[C@@H](Cc2ccc(O)cc2)C(=O)N2CCC[C@H]2C(=O)NCC(=O)N[C@@H](CC(=O)O)C(=O)N[C@@H](Cc2ccc(O)cc2)C(=O)N1)C(=O)N[C@@H](Cc1ccc(O)cc1)C(=O)NCC(=O)N[C@H](C(=O)NO)[C@@H](C)O [Ce-2 C14NHOH] |  |  |  | 3.33e-09 | 6.7e-09 | 2.55e-09 |
| CC(C)C[C@H](NC(=O)[C@H](Cc1ccc(O)cc1)NC(=O)[C@@H]1CSCC(=O)N[C@H](Cc2ccc(O)cc2)C(=O)N[C@@H](CC(=O)O)C(=O)N[C@@H](Cc2ccc(F)cc2)C(=O)N2CCC[C@H]2C(=O)NCC(=O)N[C@@H](CC(=O)O)C(=O)N[C@@H](Cc2ccc(O)cc2)C(=O)N1)C(=O)N[C@@H](Cc1ccc(O)cc1)C(=O)NCC(=O)N[C@H](C(=O)N[C@@H](CS)C(N)=O)[C@@H](C)O [Ce-2 Y3(4F)F] ({CH2CO}-[dY]D[Phe(4-F)]PGDYCYLYGTC-NH2; thioether N-8) |  |  |  | 2.1e-09 | 1.4e-09 | 1.56e-09 |
| CC(C)C[C@H](NC(=O)[C@H](Cc1ccccc1)NC(=O)[C@@H]1CSCC(=O)N[C@H](Cc2ccc(O)cc2)C(=O)N[C@@H](CC(=O)O)C(=O)N[C@@H](Cc2ccc(O)cc2)C(=O)N2CCC[C@H]2C(=O)NCC(=O)N[C@@H](CC(=O)O)C(=O)N[C@@H](Cc2ccc(O)cc2)C(=O)N1)C(=O)N[C@@H](Cc1ccc(O)cc1)C(=O)NCC(=O)N[C@H](C(=O)N[C@@H](CS)C(N)=O)[C@@H](C)O [Ce-2 Y9F] ({CH2CO}-[dY]DYPGDYCFLYGTC-NH2; thioether N-8) |  |  |  | 3.36e-09 |  | 1.07e-09 |
| CC(C)C[C@H](NC(=O)[C@H](Cc1ccc(O)cc1)NC(=O)[C@@H]1CSCC(=O)N[C@H](Cc2ccc(O)cc2)C(=O)N[C@@H](CC(=O)O)C(=O)N[C@@H](Cc2ccc(O)cc2)C(=O)N2CCC[C@H]2C(=O)N[C@@H](CC(C)C)C(=O)N[C@@H](CC(=O)O)C(=O)N[C@@H](Cc2ccc(O)cc2)C(=O)N1)C(=O)N[C@@H](Cc1ccc(O)cc1)C(N)=O [Ce-2d G5L] | 3.89e-06 | 1.47e-06 | 2.23e-08 |  |  |  |
| CC(C)C[C@H](NC(=O)[C@H](Cc1ccc(O)cc1)NC(=O)[C@@H]1CSCC(=O)N[C@H](Cc2ccc(O)cc2)C(=O)N[C@@H](CC(=O)O)C(=O)N[C@@H](Cc2ccc(O)cc2)C(=O)N2CCC[C@H]2C(=O)NCC(=O)N[C@@H](CC(=O)O)C(=O)N[C@@H](Cc2ccc(O)cc2)C(=O)N1)C(=O)N[C@@H](Cc1ccc(O)cc1)C(=O)NCC(=O)NCC(=O)N[C@@H](Cc1c[nH]cn1)C(N)=O [Ce-2 T13G, C14H] |  |  |  | 1.17e-07 | 6.96e-08 | 6.84e-09 |
| COc1ccc(C[C@H](NC(=O)[C@H](CC(C)C)NC(=O)[C@H](Cc2ccc(O)cc2)NC(=O)[C@@H]2CSCC(=O)N[C@H](Cc3ccc(O)cc3)C(=O)N[C@@H](CC(=O)O)C(=O)N[C@@H](Cc3ccc(O)cc3)C(=O)N3CCC[C@H]3C(=O)NCC(=O)N[C@@H](CC(=O)O)C(=O)N[C@@H](Cc3ccc(O)cc3)C(=O)N2)C(N)=O)cc1 [Ce-2d Y11(4OMe)F] | 1.55e-07 | 6.97e-08 | 6.31e-09 |  |  |  |
| CC(C)C[C@H](NC(=O)[C@H](Cc1ccc(O)cc1)NC(=O)[C@@H]1CSCC(=O)N[C@H](Cc2ccc(O)cc2)C(=O)N[C@@H](CC(=O)O)C(=O)N[C@@H](Cc2ccc(O)cc2)C(=O)N2CCC[C@H]2C(=O)N[C@@H](CCC(N)=O)C(=O)N[C@@H](CC(=O)O)C(=O)N[C@@H](Cc2ccc(O)cc2)C(=O)N1)C(=O)N[C@@H](Cc1ccc(O)cc1)C(N)=O [Ce-2d G5Q] | 1.3e-05 | 6.62e-06 | 1.19e-07 |  |  |  |
| CC(C)C[C@H](NC(=O)[C@H](Cc1ccc(O)cc1)NC(=O)[C@@H]1CSCC(=O)N[C@H](Cc2ccc(O)cc2)C(=O)N[C@@H](CCC(N)=O)C(=O)N[C@@H](Cc2ccc(O)cc2)C(=O)N2CCC[C@H]2C(=O)NCC(=O)N[C@@H](CC(=O)O)C(=O)N[C@@H](Cc2ccc(O)cc2)C(=O)N1)C(=O)N[C@@H](Cc1ccc(O)cc1)C(N)=O [Ce-2d D2Q] | 8.14e-07 | 2.77e-07 | 2.27e-08 |  |  |  |
| CC(C)C[C@H](NC(=O)[C@H](Cc1ccc(O)cc1)NC(=O)[C@@H]1CSCC(=O)N[C@H](Cc2ccc(O)cc2)C(=O)NCC(=O)N[C@@H](Cc2ccc(O)cc2)C(=O)N2CCC[C@H]2C(=O)NCC(=O)N[C@@H](CC(=O)O)C(=O)N[C@@H](Cc2ccc(O)cc2)C(=O)N1)C(=O)N[C@@H](Cc1ccc(O)cc1)C(N)=O [Ce-2d D2G] | 3.86e-06 | 9.9e-07 | 5.66e-08 |  |  |  |
| CC(C)C[C@H](NC(=O)[C@H](Cc1ccc(O)cc1)NC(=O)[C@@H]1CSCC(=O)N[C@H](Cc2ccc(O)cc2)C(=O)N[C@@H](CC(=O)O)C(=O)N[C@@H](Cc2ccc(O)cc2)C(=O)N2CCC[C@H]2C(=O)NCC(=O)N[C@@H](CC(=O)O)C(=O)N[C@@H](Cc2ccc(O)cc2)C(=O)N1)C(=O)N[C@@H](Cc1ccc(O)cc1)C(=O)NCC(=O)NCC(=O)N[C@@H](CS)C(N)=O [Ce-2 T13G] |  |  |  | 1.61e-09 | 8.11e-10 | 1.49e-09 |
| CC(C)C[C@H](NC(=O)[C@H](Cc1ccccc1)NC(=O)[C@@H]1CSCC(=O)N[C@H](Cc2ccc(O)cc2)C(=O)N[C@@H](CC(=O)O)C(=O)N[C@@H](Cc2ccc(O)cc2)C(=O)N2CCC[C@H]2C(=O)NCC(=O)N[C@@H](CC(=O)O)C(=O)N[C@@H](Cc2ccccc2)C(=O)N1)C(=O)N[C@@H](Cc1ccc(O)cc1)C(=O)NCC(=O)N[C@H](C(=O)N[C@@H](CS)C(N)=O)[C@@H](C)O [Ce-2 Y7F, Y9F] ({CH2CO}-[dY]DYPGDFCFLYGTC-NH2; thioether N-8) |  |  |  | 2.36e-08 | 2.49e-08 | 2.02e-09 |
| CC(C)C[C@H](NC(=O)[C@H](Cc1ccc(O)cc1)NC(=O)[C@@H]1CSCC(=O)N[C@H](Cc2ccc(O)cc2)C(=O)N[C@@H](CC(=O)O)C(=O)N[C@@H](Cc2ccccc2)C(=O)N2CCC[C@H]2C(=O)NCC(=O)N[C@@H](CC(=O)O)C(=O)N[C@@H](Cc2ccc(O)cc2)C(=O)N1)C(=O)N[C@@H](Cc1ccc(O)cc1)C(=O)NCC(=O)N[C@H](C(=O)N[C@@H](CS)C(N)=O)[C@@H](C)O [Ce-2 Y3F] ({CH2CO}-[dY]DFPGDYCYLYGTC-NH2; thioether N-8) |  |  |  | 3.22e-09 | 3.69e-09 | 1.6e-09 |
| CC(C)[C@H](NC(=O)[C@H](Cc1ccc(O)cc1)NC(=O)[C@@H]1CSCC(=O)N[C@H](Cc2ccc(O)cc2)C(=O)N[C@@H](CC(=O)O)C(=O)N[C@@H](Cc2ccc(O)cc2)C(=O)N2CCC[C@H]2C(=O)NCC(=O)N[C@@H](CC(=O)O)C(=O)N[C@@H](Cc2ccc(O)cc2)C(=O)N1)C(=O)N[C@@H](Cc1ccc(O)cc1)C(N)=O [Ce-2d L10V] | 6.66e-06 | 1.31e-06 | 1.37e-07 |  |  |  |
| CC(C)C[C@H](NC(=O)[C@H](Cc1ccc(O)cc1)NC(=O)[C@@H]1CSCC(=O)N[C@H](Cc2ccc(O)cc2)C(=O)N[C@@H](CC(=O)O)C(=O)N[C@@H](Cc2ccc(O)cc2)C(=O)N2CCC[C@H]2C(=O)NCC(=O)N[C@@H](CC(=O)O)C(=O)N[C@@H](Cc2ccc(O)cc2)C(=O)N1)C(=O)N[C@@H](Cc1ccc(O)cc1)C(=O)NCC(=O)N[C@H](C(=O)N[C@@H](CS)C(N)=O)[C@@H](C)O [Ce-2] |  |  |  | 1.24e-09 | 7.72e-10 | 8.89e-10 |
| CC(C)C[C@H](NC(=O)[C@H](Cc1ccc(O)cc1)NC(=O)[C@@H]1CSCC(=O)N[C@H](Cc2ccc(O)cc2)C(=O)N[C@@H](CC(=O)O)C(=O)N[C@@H](Cc2ccc(O)cc2)C(=O)N2CCC[C@H]2C(=O)NCC(=O)N[C@@H](CC(=O)O)C(=O)N[C@@H](Cc2ccccc2)C(=O)N1)C(=O)N[C@@H](Cc1ccc(O)cc1)C(=O)NCC(=O)N[C@H](C(=O)N[C@@H](CS)C(N)=O)[C@@H](C)O [Ce-2 Y7F] |  |  |  | 2.45e-09 | 1.46e-09 | 1.9e-09 |
| CC(C)C[C@H](NC(=O)[C@H](Cc1ccccc1)NC(=O)[C@@H]1CSCC(=O)N[C@H](Cc2ccc(O)cc2)C(=O)N[C@@H](CC(=O)O)C(=O)N[C@@H](Cc2ccc(O)cc2)C(=O)N2CCC[C@H]2C(=O)NCC(=O)N[C@@H](CC(=O)O)C(=O)N[C@@H](Cc2ccc(O)cc2)C(=O)N1)C(=O)N[C@@H](Cc1ccc(O)cc1)C(N)=O [Ce-2d Y9F] |  | 1.52e-06 | 1.25e-07 |  |  |  |
| CC(C)C[C@H](NC(=O)[C@H](Cc1ccc(O)cc1)NC(=O)[C@@H]1CSCC(=O)N[C@H](Cc2ccc(O)cc2)C(=O)N[C@@H](CC(=O)O)C(=O)N[C@@H](Cc2ccc(O)cc2)C(=O)N2CCC[C@H]2C(=O)NCC(=O)NCC(=O)N[C@@H](Cc2ccc(O)cc2)C(=O)N1)C(=O)N[C@@H](Cc1ccc(O)cc1)C(N)=O [Ce-2d D6G] |  |  | 4.25e-06 |  |  |  |
| CC(=O)N[C@@H](Cc1ccc(O)cc1)C(=O)NCC(=O)N[C@H](C(=O)N[C@@H](CS)C(N)=O)[C@@H](C)O [Ac-YGTCNH2, Ac-YGTC-CONH2] (Ac-YGTC-NH2) |  |  |  | > 0.001 |  | 0.000999 |
| CC(C)C[C@H](NC(=O)[C@H](Cc1ccc(O)cc1)NC(=O)[C@@H]1CSCC(=O)N[C@H](Cc2ccc(O)cc2)C(=O)N[C@@H](CC(=O)O)C(=O)N[C@@H](Cc2ccc(O)cc2)C(=O)N[C@@H](Cc2c[nH]cn2)C(=O)NCC(=O)N[C@@H](CC(=O)O)C(=O)N[C@@H](Cc2ccc(O)cc2)C(=O)N1)C(=O)N[C@@H](Cc1ccc(O)cc1)C(N)=O [Ce-2d P4H] |  |  | 6.96e-08 |  |  |  |
